PubChem BioAssay AID1476 (National Center for Advancing Translational Sciences (NCATS), 2009)
Hit rate of the full screen: of about 200,000 compounds, about 4,500 (2.2%) were called active. This list was built around the results that the source calls inconclusive (neither active nor inactive); the mix of calls is not that of the screen. Calls come from the whole dose curve; as a rule, active = well fitted inhibition curve with a large enough effect; inconclusive = small, poorly fitted or top-dose-only effect, or effect the other way; inactive = flat fitted curve, though single readings scatter. Where the call is inconclusive, the potency comes from a doubtful curve fit.

These compounds were tested against Cruzipain (Trypanosoma cruzi) (UniProt P25779) (assay: qHTS Assay for Promiscuous and Specific Inhibitors of Cruzain (without detergent)). Settings: purified cruzain, Z-FR-AMC fluorescence, no detergent.
Sequence of UniProt P25779 (P25779 whole entry, looked up): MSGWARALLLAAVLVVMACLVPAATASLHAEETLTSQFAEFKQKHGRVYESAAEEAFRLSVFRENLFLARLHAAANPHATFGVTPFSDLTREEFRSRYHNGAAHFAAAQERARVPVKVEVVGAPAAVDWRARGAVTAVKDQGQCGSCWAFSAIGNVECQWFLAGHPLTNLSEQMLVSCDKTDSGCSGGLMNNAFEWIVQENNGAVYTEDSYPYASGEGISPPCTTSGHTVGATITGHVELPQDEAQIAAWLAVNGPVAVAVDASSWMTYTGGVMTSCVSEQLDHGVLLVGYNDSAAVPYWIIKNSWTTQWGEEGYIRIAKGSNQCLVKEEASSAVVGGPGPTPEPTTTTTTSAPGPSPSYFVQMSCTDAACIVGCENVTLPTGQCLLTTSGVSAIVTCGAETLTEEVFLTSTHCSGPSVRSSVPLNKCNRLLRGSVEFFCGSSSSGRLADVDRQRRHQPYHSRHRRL
How it was run: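 Purified cruzain at 1.5 nM, pre-incubated 15 min with compound at room temperature in 100 mM sodium acetate pH 5.5, 5 mM DTT, 0.00005% Triton X-100. Reaction started with 2 uM Z-FR-AMC; AMC fluorescence increase over 60 s gives rate.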
Note: nearly all actives have a fitted effect of over 40% in size.
Potency is the fitted concentration of half-maximal effect; tags give direction and shape of the fitted curve.
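Throughout, for max response, negative = inhibition: plate controls were enzyme without inhibitor for no effect and buffer without enzyme for full effect.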

| SMILES | Potency | max response, negative = inhibition |
| --- | --- | --- |
| N#Cc1cccc(NC(=O)COC(=O)c2ccccc2Sc2ccccc2C#N)c1 | inconclusive: 39.8 µM [inhibitor, single point] |  |
| Cc1c(NS(=O)(=O)c2ccc3c(c2)OCCO3)cccc1-c1nc2cccnc2s1 | active: 15.8 µM |  |
| Cc1cc(=O)oc2ccc(OC(=O)c3cccc(S(=O)(=O)N4CCOCC4)c3)cc12 | inconclusive: 31.6 µM [activator, single point] |  |
| COc1ccc(C(=O)N2CCN(c3nc4c(OC)cccc4s3)CC2)cc1OC | inconclusive: 39.8 µM [activator, single point] |  |
| COc1ccc(CCNC(=O)Cc2ccc(NC(=O)N3CCSc4ncccc43)cc2)cc1OC |  | inactive: -2.67% |
| CC1Cc2ccccc2N1C(=O)Cn1c(=O)oc2cc(S(=O)(=O)NC3CCCC3)ccc21 (stereo not given) | inconclusive: 31.6 µM [inhibitor, single point] |  |
| O=C(CCN1Cc2ccccc2C1)c1ccc2c(c1)OCCO2 | inconclusive: 15.8 µM [inhibitor, partial curve] |  |
| Cc1ccc(/C=C/C(=O)OCC(=O)Nc2ccccc2Sc2ccccc2)cc1 | active: 12.6 µM |  |
| Cc1cc(C(=O)CN2C(=O)c3cccc(N)c3C2=O)c(C)n1Cc1cccs1 | inconclusive: 31.6 µM [inhibitor, single point] |  |
| COc1cccc(Cn2c(=O)c(-c3cccs3)nc3cncnc32)c1 |  | inactive: -3.04% |
| COc1cc(NC(=O)c2cccc(COCC(F)(F)C(F)F)c2)cc(OC)c1OC | inconclusive: 39.8 µM [activator, single point] |  |
| C#CCOCCOCCOCCNc1nc(N2CCN(C(=O)[C@H]([C@@H](C)CC)n3cc(CCCN=C(N)N)nn3)CC2)nc(N2CCN(C(=O)[C@H](CCCCN)n3cc(CCCC)nn3)CC2)n1 | inconclusive: 39.8 µM [inhibitor, single point] |  |
| CCOc1cc(/C=C2\C(=O)N(c3nc(-c4ccc(Br)cc4)cs3)N=C2c2ccccc2)ccc1O | active: 3.16 µM |  |
| Cc1cc(-c2csc(N)n2)c(C)n1C | inconclusive: 39.8 µM [inhibitor, single point] |  |
| CC(C)COc1ccc(C(=O)N(Cc2cccc(F)c2)C2CCS(=O)(=O)C2)cc1 (stereo not given) | inconclusive: 39.8 µM [activator, single point] |  |
| CCOC(=O)c1cc(-c2ccccc2)n(-c2cccc(C(=O)NC(C)(C)C)c2)c1C |  | inactive: -0.873% |
| CC(C)CN(CC(C)C)C(=O)CCCC(=O)N(CC(C)C)CC(C)C | inconclusive: 25.1 µM [activator, single point] |  |
| CCOC(=O)c1cccc(NC(=O)C2=C(C)C(=O)OC23CCCCC3)c1 |  | inactive: -3.45% |
| CCOC(=O)c1cnn(-c2ccccc2)c1N | inconclusive: 0.0251 µM [inhibitor, full curve, poor fit] |  |
| Cc1nnc(NC(=O)c2sc3nc(-c4cccs4)cc(C(F)(F)F)c3c2N)s1 | inconclusive: 12.6 µM [activator, partial curve] |  |
| CCCc1nn2c(=O)cc(COC(=O)c3ccc4c(c3)OCO4)nc2s1 |  | inactive: -13.9% |
| O=C(NCCO)c1ccc(-c2nnc(Nc3ccc(OC(F)(F)Cl)cc3)c3ccccc23)cc1 | inconclusive: 31.6 µM [activator, partial curve] |  |

| SMILES | Potency | max response, negative = inhibition |
| --- | --- | --- |
| COc1ccc2c(-c3cc4ccc(OCc5ccc(F)cc5)cc4oc3=O)cc(=O)oc2c1 | active: 10 µM |  |
| Cc1cc(C(=O)CN2C(=O)NC3(CCCCC3C)C2=O)c(C)n1Cc1cccs1 (stereo not given) | active: 31.6 µM |  |
| O=S(=O)(c1ccc(-c2nnc(SCc3nnc(-c4ccccc4)o3)o2)cc1)N1CCCC1 | inconclusive: 39.8 µM [inhibitor, single point] |  |
| COc1ccc(C(=O)Nc2ccc(-c3nc4ccccc4s3)c(Cl)c2)cc1Cl | inconclusive: 5.01 µM [inhibitor, single point] |  |
| Cn1c(NCCCO)nc2c1c(=O)n(Cc1cccc(F)c1)c(=O)n2C |  | inactive: 13.6% |
| CC(C)c1ccc(/C=C/C(=O)Nc2nc3ccc([N+](=O)[O-])cc3s2)cc1 | active: 3.98 µM |  |
| COc1ccc(/C=C/c2nc(-c3ccccc3O)n(-c3ccccc3)n2)cc1 |  | inactive: -13.2% |
| CCCCn1c(=O)c(Cc2ccccc2)c(O)c2ccccc21 | inconclusive: 39.8 µM [inhibitor, single point] |  |
| COc1ccc(C(=O)Nc2ccccc2C(=O)N/N=C/c2cccc3ccccc23)cc1 | inconclusive: 31.6 µM [inhibitor, single point] |  |
| CN(C)c1ccc(C(CNC(=O)c2ccc(C#N)cc2)c2c[nH]c3ccccc23)cc1 (stereo not given) | inconclusive: 31.6 µM [inhibitor, single point] |  |
| CCOc1ccc(N(Cc2cc3cc(OC)ccc3[nH]c2=O)S(C)(=O)=O)cc1 | inconclusive: 39.8 µM [activator, single point] |  |
| Cc1cc(SCC(=O)Nc2ccc(F)cc2F)nc(=O)[nH]1 |  | inactive: -13.4% |
| Cc1cccc(N2CCN(C(=O)CCCn3c(=S)[nH]c4cc5c(cc4c3=O)OCO5)CC2)c1C | inconclusive: 39.8 µM [inhibitor, single point] |  |
| COC(=O)c1c(NC(=O)CN2CCN(c3ccccc3)CC2)c2c(C)cccc2n1C | inconclusive: 31.6 µM [activator, partial curve] |  |
| Cc1ccc(C(=O)O)cc1NC(=O)CN1C(=O)C2C3c4ccccc4C(Br)(c4ccccc43)C2C1=O (stereo not given) | inconclusive: 7.94 µM [inhibitor, single point] |  |
| O=C(Nc1ccccc1[N+](=O)[O-])C1C(c2ccccc2)=C1c1ccccc1 | inconclusive: 39.8 µM [inhibitor, single point] |  |
| Cn1cccc1/C=C1\C(=O)NC(=O)N(CCC2=CCCCC2)C1=O | active: 20 µM |  |
| CCOc1ccc(CCNC(=O)c2c3c(nc4ccccc24)C(=O)N(C2CCCCC2)C3)cc1 | inconclusive: 39.8 µM [activator, single point] |  |
| Cc1ccc(S(=O)(=O)N2CCCc3cc(NC(=O)c4ccc(Cl)cc4)ccc32)cc1 | inconclusive: 39.8 µM [inhibitor, single point] |  |
| COC(=O)c1c(NC(=O)C2COc3ccccc3O2)sc2c1CCN(C(C)=O)C2 (stereo not given) | inconclusive: 31.6 µM [activator, single point] |  |
| Cn1ncc(Cl)c1C(=O)NC(=S)Nc1sc2c(c1C#N)CCCCC2 | inconclusive: 31.6 µM [inhibitor, single point] |  |
| ClCc1ccccc1 |  | inactive: 9.05% |

| SMILES | Potency | max response, negative = inhibition |
| --- | --- | --- |
| CC(CC(C)C(=O)Nc1ccccc1C(C)(C)C)C(=O)O (stereo not given) | inconclusive: 7.94 µM [activator, single point] |  |
| COc1ccccc1Nc1nc(-c2sc(NC(=O)c3ccccc3)nc2C)cs1 | inconclusive: 39.8 µM [inhibitor, single point] |  |
| Cc1cccc(C2=NN(c3ccccc3)[C@@H](C(=O)N3CCOC3=O)[C@@H]2C)c1 |  | inactive: 0.549% |
| C/C(=N\NC(=O)c1ccc(Cl)cc1)c1ccc(Br)s1 | inconclusive: 31.6 µM [inhibitor, single point] |  |
| CC(C)c1c(O)ccc2c1CCC1[C@@](C)(C=O)CCC[C@@]21C (stereo not given in full) |  | inactive: -14.9% |
| CCSc1nnc(-c2ccccc2N=Cc2c(C)[nH]n(-c3ccccc3)c2=O)c(=O)[nH]1 | inconclusive: 39.8 µM [activator, single point] |  |
| Cc1oc(-c2ccccc2F)nc1CS(=O)(=O)CC(=O)NCCCc1ccccc1 | inconclusive: 39.8 µM [activator, single point] |  |
| CCOC(=O)c1cc2c(=O)n3ccccc3nc2n(CCOC)c1=NC(=O)c1c(-c2c(F)cccc2Cl)noc1C | inconclusive: 6.31 µM [activator, single point] |  |
| CCCCOc1ccc(NC(=S)Nc2cc(C)nc(SCCCC)n2)cc1 | active: 25.1 µM |  |
| O=C(c1ccccc1)n1nc(-c2ccc(Cl)cc2)nc1NCc1ccco1 |  | inactive: 4.8% |
| Brc1ccc(C2Nc3cccc4cccc(c34)N2)o1 | active: 7.94 µM |  |
| Cc1cccc(-n2c(O)c(C=Nc3ccc4c(c3)OCO4)c3ccccc3c2=O)n1 | inconclusive: 31.6 µM [activator, single point] |  |
| Cc1c(C(=O)NCCC2=CCCCC2)oc2ccc(S(=O)(=O)N3CCOCC3)cc12 | inconclusive: 39.8 µM [activator, single point] |  |
| CCN(CC)c1ccc(/C=N/Nc2cccc(C)c2)c(O)c1 | inconclusive: 31.6 µM [inhibitor, single point] |  |
| CCOc1ccc(N(C(C)=O)C2C=CS(=O)(=O)C2)cc1 (stereo not given) |  | inactive: -3.27% |
| Cc1c(NS(=O)(=O)c2ccc(C(C)(C)C)cc2)c(=O)n(-c2ccccc2)n1C |  | inactive: -6.38% |
| CC(C)c1ccc(N(CC(=O)N/N=C/c2ccc(OC3CSC3)cc2)S(=O)(=O)c2ccccc2)cc1 | inconclusive: 31.6 µM [inhibitor, partial curve] |  |
| O=C(CCNS(=O)(=O)c1ccc2c(c1)CCN2C(=O)C1CC1)Nc1ccc(Cl)cc1 |  | inactive: -8.34% |
| Cc1ccc(C2OCC3(CO)COC(c4ccc(C)cc4)N23)cc1 (stereo not given) | inconclusive: 39.8 µM [activator, single point] |  |
| COP(=O)(OC)c1nc(-c2cccc3ccccc23)oc1NCCc1ccccc1 | inconclusive: 1.26 µM [inhibitor, partial curve] |  |
| CCCN(C(=O)c1ccc2c(=O)n3c(nc2c1)CCCCC3)c1cccc(Cl)c1 | inconclusive: 39.8 µM [activator, single point] |  |
